Measurements as given in PubChem BioAssay AID463173 (ICCB-Longwood Screening Facility, Harvard Medical School, 2010).
In all, about 52,000 compounds went through this assay and about 4,300 (8.3%) were called active. Cut-off read from the data, not from the text of the source: active = survival mostly below about 52% (no sharp cut-off); inactive = mostly above about 56%. This is one part of the list.

system: DeltatarO mutant; experiment: S. aureus survival, RN4220 and DeltatarO strains – OD600, teichoic acid synthesis inhibitors, primary screen (AID 463173); conditions: S. aureus RN4220 wild type/DeltatarO growth, OD600, 18 h, stronger effect = lower value, screened at 18.75 µg/mL (by protocol)

| Compound | survival |
| --- | --- |
| CC(C)NC(=O)C(c1ccccc1)N1Cc2ccccc2C1=O (stereo unspecified) | inactive: 101% |
| CC(C)c1ccc2occ(CC(=O)Nc3ccccc3Cl)c2c1 | inactive: 85% |
| Cc1cc(C)nc(/N=C(\N)N2CCc3ccccc32)n1 | inactive: 79% |
| Cc1ccc(C)c(NC(=O)Cn2c(=O)n(Cc3ccc4c(c3)OCO4)c(=O)c3oc4ccccc4c32)c1 | inactive: 74% |
| CC1=C(C(N)=O)C(c2cccc(C)c2)n2nc(-c3cccc(C)c3)nc2N1 (stereo unspecified) | inactive: 66% |
| COc1ccc(-c2noc(CSc3nc(C)cc(=O)[nH]3)n2)cc1OC | inactive: 76% |
| Cc1ccc(CSc2nnc(-n3c(=O)c(C#N)cc4c(=O)n5cc(C)ccc5nc43)s2)cc1 | inactive: 94% |
| CCc1ccc(-n2nc(CO)c(C(=O)NCC(c3ccccc3)c3ccccc3)n2)cc1 | inactive: 51% |
| Cc1ccc(N(Cc2cc3ccccc3[nH]c2=O)C(=O)c2cccc(Cl)c2)cc1 | inactive: 83% |
| Cc1nn(C(=O)c2cc3sc(Br)cc3[nH]2)c(C)c1C | inactive: 103% |
| Cc1ccc(-c2cn3c(n2)sc2cc(C(=O)NCc4cccs4)ccc23)c(C)c1 | active: 41% |
| CCn1c(SCc2ccc(F)cc2Cl)nc(=O)c2c(C(=O)OC)cc(C3CC3)nc21 | inactive: 82% |
| CC(C)C1N=C2c3ccccc3N=C(SCC(=O)NCc3ccccc3Cl)N2C1=O (stereo unspecified) | inactive: 99% |
| Cc1ccc(CNC(=O)c2cc(-c3ccc(C)cc3)nc3n[nH]c(-c4ccc(F)cc4)c23)cc1 | inactive: 85% |
| CCCn1c(=O)c2sccc2n2c(CCCC(=O)Nc3ccc(Oc4ccccc4)cc3)nnc12 | inactive: 88% |
| CCOC(=O)C1CCN(S(=O)(=O)c2ccc(N3CCCCS3(=O)=O)cc2)CC1 | inactive: 80% |
| COc1ccc(CNC(=O)c2ccc3c(c2)N(Cc2ccccc2C)C(=O)c2ccccc2S3=O)cc1 (stereo unspecified) | inactive: 99% |
| O=C(NCc1ccc(F)cc1)C1CCN(c2ncnc3c2nc2n3CCCCC2)CC1 | inactive: 86% |
| O=C(CSc1nnc(Cn2nnc3ccccc32)o1)N1c2ccccc2CCc2ccccc21 | inactive: 83% |

| Compound | survival |
| --- | --- |
| COc1ccc(CNc2oc(/C=C/c3cccc(OC)c3)nc2C#N)cc1 | inactive: 63% |
| O=C(CN1CCC(N2CCCCC2)CC1)c1ccc2c(c1)OCCO2 | inactive: 83% |
| COc1ccc(OC)c(CNC(=O)c2c(C)oc3ncn(C)c(=O)c23)c1 | inactive: 83% |
| O=C(c1ccc2c(c1)CCN2S(=O)(=O)c1ccc(Cl)cc1)N1CCN(c2ccccc2)CC1 | inactive: 58% |
| CCOc1ccc(CN2C(=O)c3ccccc3Sc3ccc(C(=O)OC)cc32)cc1 | inactive: 75% |
| CC(=O)Nc1ccc(S(=O)(=O)NCc2cccn2Cc2cccc(C)c2)cc1 | inactive: 83% |
| Cc1ccc(CSc2nc(-c3ccc(C(C)(C)C)cc3)nc3cc(=O)[nH]n23)cc1 | inactive: 89% |
| CCc1ccc(Nc2sc(C(=O)c3ccccc3)c(N)c2S(C)(=O)=O)cc1 | inactive: 70% |
| CCOCCc1nn2c(=O)cc(COC(=O)CNC(=O)c3ccc(F)cc3)nc2s1 | inactive: 94% |
| CCOc1ccc(CC(=O)NCCc2csc(-c3ccc(Cl)cc3)n2)cc1 | inactive: 67% |
| CN(Cc1ccccc1)C(=O)c1cccc(NC(=O)c2nsc3ccccc23)c1 | inactive: 85% |
| COc1cc(C(CC(=O)Nc2cc(C)ccc2C)N2Cc3ccccc3C2=O)cc(OC)c1OC (stereo unspecified) | inactive: 86% |
| CC(C)(C)OC(=O)N1CCC(c2c(C(=O)N3CCN(c4ccccn4)CC3)cnn2-c2ccccc2Cl)CC1 | inactive: 54% |
| CC(=O)c1ccc(NC(c2ccc(F)cc2)c2nnc(-c3ccccc3)o2)cc1 (stereo unspecified) | inactive: 77% |
| CCOC(=O)c1[nH]c(C)c(CCC(=O)N2CCN(c3cccc(C)c3C)CC2)c1C | inactive: 83% |
| CCOCCCNC(=O)c1cn(CC)c2ccc(S(=O)(=O)N3CCc4ccccc4C3)cc2c1=O | inactive: 85% |
| Cc1cccc(NS(=O)(=O)c2ccc(NC(=O)N3CCCC3)cc2)c1 | inactive: 88% |
| CCOc1ccc(-c2oc3cc(Cl)ccc3c(=O)c2O)cc1OC | inactive: 85% |
| CCOC(=O)c1cc(C)n(CC2CCC(C(=O)Nc3ccc(C(=O)OC)cc3)CC2)c1C (stereo unspecified) | inactive: 69% |

| Compound | survival |
| --- | --- |
| Cc1ccccc1CNC(=O)Nc1ccc2c(c1)N(C)C(=O)c1ccccc1S2 | active: 63% |
| COc1ccc(C2CC(=O)N(Cc3ccccc3)c3c2c(C)nn3-c2nc(C)cc(C)n2)c(OC)c1 (stereo unspecified) | inactive: 92% |
| COc1ccc(-n2nc3ccc(NS(C)(=O)=O)cc3n2)cc1Cl | inactive: 70% |
| O=C(CCOc1ccccc1)N(Cc1cccnc1)c1nc2ccc(F)cc2s1 | inactive: 94% |
| O=C(Nc1ccc2oc(-c3ccc(Cl)cc3)nc2c1)c1ccc2ccccc2c1 | inactive: 72% |
| Cc1ccc2nc(SCC(=O)NCc3ccco3)c(C)cc2c1 | inactive: 84% |
| CCN(CC)c1cc(C)c2cc(NC(=O)c3ccc(F)cc3Cl)ccc2n1 | active: 39% |
| Cn1c(=O)oc2cc(S(=O)(=O)N3CCC(C(=O)N4CCN(c5ccc(Cl)cc5)CC4)CC3)ccc21 | inactive: 56% |
| CCOc1ccccc1NC(c1nnc(-c2ccccc2)o1)c1ccc(F)cc1Cl (stereo unspecified) | active: 1% |
| CCN(C(=O)c1cc2c(=O)oc3ccc(C)cc3c2s1)c1ccccc1F | inactive: 73% |
| CC(C)CN(CCNC(=O)c1cn(C)c2ccc(S(=O)(=O)N3CCCC3)cc2c1=O)CC(C)C | inactive: 141% |
| CCCN(C(=O)CCNC(=O)Cn1cnc2ccccc2c1=O)c1cccc(C)c1 | inactive: 67% |
| Cc1nn(-c2ccc(N3CCCCC3)nn2)c(C)c1CCC(=O)NCc1ccc(Cl)cc1 | inactive: 79% |
| CCc1ccccc1NC(=O)Cn1cc2c(n1)CCC(C)C2 (stereo unspecified) | inactive: 82% |
| O=c1cc(-c2ccccc2)c2ccc3c(c2o1)CN(Cc1ccccc1)CO3 | inactive: 85% |
| CCc1ccc(NS(=O)(=O)c2ccc3[nH]cc(C(=O)N(C)Cc4ccco4)c(=O)c3c2)cc1 | inactive: 72% |
| CCOC(=O)c1c(NC(=O)c2cc(Cl)ccc2Cl)sc2c1CCCC2 | inactive: 72% |
| COc1ccc(OC)c(NC(=O)c2cc(=O)c3c(C)cc(C)cc3o2)c1 | active: 42% |
